Measurements: PubChem BioAssay AID1159614 (National Center for Advancing Translational Sciences (NCATS), 2016)
Among all 45,000 compounds or so, about 65 (0.1%) were called active. The call rests on the fitted dose curve; in most records, active means well fitted activation curve with a large enough effect; inconclusive means small, poorly fitted or top-dose-only effect; inactive means no such curve, though single readings can be large or run the other way. Some of the results follow.

target: Galactocerebrosidase (Homo sapiens) (UniProt P54803); assay: A Novel Cell-Based Assay to Identify Small Molecules for B -Galactocerebrosidase; conditions: 145M-Twi-hGALC-G270D cells (Twitcher mouse brain line with human GALC G270D), HMU-beta-Gal fluorescence, 48 h; series mostly up to 57.5 µM; activation: at the top concentration; further: 0% is about no effect; nearly all actives have a fitted effect of over 65% in size
How it was run: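 Fluorogenic HMU-b-Gal hydrolysis (0.1 mM final, pH 5.2 citrate-phosphate with 1 mg/mL sodium taurocholate; carbonate stop buffer) measures mutant GALC activity after compound treatment of live 145M-Twi Twitcher brain cells stably carrying human GALC-G270D, with wild-type GALC line alongside; activation sought.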

Sequence of UniProt P54803 (P54803 whole entry, looked up): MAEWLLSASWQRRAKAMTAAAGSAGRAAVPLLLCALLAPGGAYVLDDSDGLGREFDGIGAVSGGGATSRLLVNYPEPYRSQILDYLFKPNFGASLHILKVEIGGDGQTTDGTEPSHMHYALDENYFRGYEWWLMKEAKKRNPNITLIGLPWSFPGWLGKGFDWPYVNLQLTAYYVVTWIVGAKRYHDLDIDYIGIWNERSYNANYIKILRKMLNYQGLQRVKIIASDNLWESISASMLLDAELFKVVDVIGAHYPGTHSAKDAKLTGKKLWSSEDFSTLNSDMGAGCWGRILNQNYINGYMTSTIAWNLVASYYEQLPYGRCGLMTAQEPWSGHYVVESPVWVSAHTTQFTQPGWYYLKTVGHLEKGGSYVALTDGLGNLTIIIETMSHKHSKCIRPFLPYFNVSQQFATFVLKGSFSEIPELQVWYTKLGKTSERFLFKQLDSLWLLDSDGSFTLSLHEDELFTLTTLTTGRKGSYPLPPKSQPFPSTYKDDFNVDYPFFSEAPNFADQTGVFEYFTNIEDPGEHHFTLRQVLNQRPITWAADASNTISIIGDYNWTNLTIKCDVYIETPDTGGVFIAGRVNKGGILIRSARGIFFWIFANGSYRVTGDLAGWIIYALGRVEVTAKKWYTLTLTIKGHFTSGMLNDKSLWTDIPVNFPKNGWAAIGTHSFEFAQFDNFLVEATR

activation, inactive:
COc1cc(C(=O)Nc2ccc3nc4n(c(=O)c3c2)CCCCC4)cc(OC)c1OC -8.17%, COc1ccc(NS(=O)(=O)c2cnc(N)nc2)cc1Cl -29.9%, COc1ccc(-c2nc3ccccc3o2)cc1NC(=O)COc1cc(C)cc(C)c1 -7.52%, Cc1oc2c(c1C(=O)Nc1ccc(OC(F)(F)F)cc1)C1=NCCN1C=N2 -11.8%, O=C(COc1ccc2oc3c(c2c1)CCCC3)Nc1cccc(Br)c1 -4.24%, Cc1cc(=O)[nH]c2nnc(SCC(N)=O)n12 -20.2%, CC(=O)c1ccc(Oc2ncnc3c2oc2ccccc23)cc1 -7.35%, COc1ccc(NC(=O)CCS(=O)(=O)c2cc3c4c(c2)CCN4C(=O)CC3)c(OC)c1 -16.1%, CC1CCN(C(=O)Cn2cc(SCC(=O)NCc3ccc(F)cc3)c3ccccc32)CC1 -7.94%, COc1cc(C(=O)NCCc2sc(-c3ccc(C)cc3)nc2C)cc(OC)c1OC -18.6%, Cc1nnc(N2C(=O)c3oc4ccccc4c(=O)c3C2c2cccc(OCCC(C)C)c2)s1 (configuration not stated) -10.5%, CCCCc1ccc(C(=O)c2c(N)c(C(=O)Nc3cccc(OC)c3)c3ccccn23)cc1 -16.6%, Cc1ccccc1CN1C(=O)c2ccccc2S(=O)c2ccc(C(=O)N3CCOCC3)cc21 (configuration not stated) -15.4%, COc1ccc(NC(=O)CSc2nc3ccccc3nc2N2CCOCC2)c(OC)c1 -7.72%, Cc1ccc(-c2noc(-c3ccc(N4CCOCC4)c([N+](=O)[O-])c3)n2)cc1 -6.03%, Cc1ccc(C(=O)c2oc3ccccc3c2NC(=O)COc2ccccc2C)cc1 7.69%, O=[N+]([O-])c1cc(-c2nc(-c3ccccc3)no2)ccc1NCc1ccco1 -6.22%, Cn1c(=O)c2cc(C(=O)NCCCN3CCN(c4ccc(F)cc4)CC3)sc2c2ccccc21 -3.62%, COCCCNC(=O)c1c(NC(=O)Cc2coc3cc(C)ccc23)sc2c1CCCC2 13.5%, COc1ccc(C(=O)/C=C/c2cn(CC(O)CN3CCCCCC3)c3ccccc23)cc1OC (configuration not stated) -1.27%, Cc1ccc(C2CC(=O)N(Cc3ccc(F)cc3)c3c2c(C)nn3-c2nc(C)cc(C)n2)cc1 (configuration not stated) -14.4%, COc1ccc(CCNC(=O)CCCn2c(=O)c3ccccc3n(CC(=O)Nc3ccccc3C)c2=O)cc1OC -8.46%, N[C@H](Cc1c[nH]c2ccccc12)C(=O)O -14.1%, Cc1ccccc1CNC(=O)CN1C(=O)CCCc2ccccc21 14%, Cc1ccc2scc(N3CCCCC3C)c(=O)c2c1 (configuration not stated) -14.2%, O=C(CN1CCN(Cc2ccc(F)cc2)C1=O)NCc1ccc(F)cc1 -10.7%, COc1ccc(Cn2c(SCC(=O)N3CCN(c4ccc(F)cc4)CC3)nc3ccccc32)cc1 2.49%, CCc1ccccc1NC(=O)CN(c1ccccc1OC)S(=O)(=O)c1ccc(C)cc1 -11.8%, COCCNC(=O)Cn1c(-c2cccs2)cc2cc(Cl)ccc21 -10.1%, Cc1ccsc1CN(C(=O)COc1ccccc1Cl)C1CCS(=O)(=O)C1 (configuration not stated) -4.46%, O=C(COc1ccccc1)N(Cc1cccnc1)c1nc2c(F)cc(F)cc2s1 -1.29%, Cc1sc(C2C(C#N)=C(N)N(c3ccc(Cl)cc3)C3=C2C(=O)CCC3)cc1CN1CCOCC1 (configuration not stated) -15.5%, CC1CCN(S(=O)(=O)c2ccc3c(c2)N(CC(=O)NCCCOC(C)C)C(=O)CO3)CC1 -5.35%, COCCNC(=O)CN1C(=O)COc2ccc(S(=O)(=O)N3CCCCCC3)cc21 -14.3%, CCC(C(=O)NC1CCCCC1)n1c(SCc2ccccc2F)nc2ccncc21 (configuration not stated) -6.84%, CCOC(=O)CSc1nc2sc3c(c2c(=O)n1Cc1ccccc1)CC(C(C)C)OC3 (configuration not stated) -5.33%, CCC(C)NC(=O)CCCn1c(=O)c2cccn2c2ccccc21 (configuration not stated) -13.2%, CCN(Cc1ccccc1)c1nc2c(S(=O)(=O)c3ccccc3)nnn2c2ccc(Cl)cc12 -21.9%, Cc1nn(C(C)C(=O)NCCc2ccccc2)c(=O)c2c1sc1ccccc12 (configuration not stated) 4.43%, Cc1ccccc1C(=O)Nc1cccc(NC(=O)c2ccc(C(C)(C)C)cc2)c1 -8.64%, CCc1ccc(NC(=O)CSc2ccc(-c3sc(-c4ccccc4)nc3C)nn2)cc1 -13.6%, O=C(NCC(c1cccs1)S(=O)(=O)c1cccs1)c1cccc(F)c1 (configuration not stated) -3.59%, Cc1ccc(CNC(=O)c2ccc(Cn3c(=O)c4ccccc4n(CC(=O)Nc4c(C)cc(C)cc4C)c3=O)cc2)cc1 -14.8%, O=c1oc2c3c(ccc2c2ccccc12)OCN(Cc1ccc(Cl)cc1)C3 -12.8%, COc1ccc(-c2nc3ccccc3n3c(-c4ccccc4)c4c(=O)n(C)c(=O)n(C)c4c23)cc1OC -13.9%, c1cnc(N2CCN(c3ncc4c(n3)CCNC4)CC2)nc1 -15.1%, COc1ccc(OC)c(-n2nnc(-c3nc(-c4cc(OC)c(OC)c(OC)c4)no3)c2C)c1 -12.1%, CN1C(=O)c2ccccc2Sc2ccc(NC(=O)N3CCN(c4ccccc4)CC3)cc21 -4.18%, CC(=O)N1c2ccccc2C(C)(c2ccc(C)cc2)CC1(C)C (configuration not stated) -14.3%, O=C(NCc1ccccc1)c1cccn1-c1nnc(N2CCCC2)s1 -16.2%, COCCn1c(=O)[nH]c2cc(C(=O)N3CCN(c4ccccc4)CC3)ccc2c1=O 3.57%, COc1cc2c(cc1OC)C(COc1ccc3c(C)cc(=O)oc3c1)N(C(=O)c1ccccc1C)CC2 (configuration not stated) -3.64%, COc1ccc(-n2nnnc2C2CCN(S(=O)(=O)c3ccc(C)cc3)CC2)cc1 -6.05%, CC1=C(c2ccc(C)cc2)S(=O)(=O)N(Cc2ccc(C(=O)Nc3ccc(C)c(F)c3)cc2)C1=O -12%, CCOc1ccc(C(=O)Nc2ccc3nc(SCC(=O)N4CCc5ccccc54)sc3c2)cc1 5.4%, NC(=O)CSc1ncc2c(n1)-c1ccccc1N(Cc1ccc(F)cc1)S2(=O)=O -10.3%, Cc1ccc(-c2ccc(CCC(=O)O)n2-c2ccc(C(N)=O)cc2)cc1 -6.48%, CCOc1ccc(CNC(=O)c2nn(-c3ccc(OC)cc3)c(=O)c3c2c2ccccc2n3C)cc1 -14.4%, CC(=O)N1CCc2cc(S(=O)(=O)NC(Cc3ccccc3)C(=O)Nc3cc(C)ccc3C)ccc21 (configuration not stated) -19.3%, COc1ccc2c(c1)c1c(c(=O)n(Cc3ccccc3)c(=O)n1Cc1cccc(Cl)c1)n2C -10.1%, COc1ccccc1NC(=O)c1cnc(SCC(=O)N2CCOCC2)n(C)c1=O -16.2%, CCn1cc(C(=O)NCCCOC)c(=O)c2cc(S(=O)(=O)N3CCc4ccccc4C3)ccc21 -21.4%, Cc1cc(C)c2oc(-c3ccc(Cl)c(NC(=O)c4cccs4)c3)nc2c1 -14.8%, COc1ccc(-c2n[nH]c3c2cnc2ccc(F)cc23)cc1 -10.4%, CCCSc1nc(-c2ccccc2)[nH]c1S(=O)(=O)c1ccc(C)cc1 -12.5%, Cc1ccc(-c2c(C(=O)NCCc3ccccc3)oc(=O)c3ccccc23)cc1 -13.8%, COc1ccc(-c2cc3ccc(O)c(CN4CCCC4)c3oc2=O)cc1 -27.4%, CCOC(=O)C1CCCN(CC(=O)Nc2cc(C)c3c(=O)oc4ccccc4c3n2)C1 (configuration not stated) -11.2%, O=c1oc2ccc3ccccc3c2cc1-c1nnc(Nc2ccccc2F)s1 -2.62%, Cc1cc(C)cc(NC(=O)C2CCN(S(=O)(=O)c3cn(C)cn3)CC2)c1 -16.4%, CC1=Nc2cc(C(=O)N3CCC(C)CC3)ccc2Sc2ccc(Cl)cc21 -18.1%, Cn1cc(S(=O)(=O)N2CCCCCC2)cc1C(=O)Nc1ccc(Cl)c(C(F)(F)F)c1 0.631%, COc1ccc(NS(=O)(=O)c2cc3c(cc2C)N(C(C)=O)CCO3)cc1 -1.16%, Cc1cc2c(cc1NS(=O)(=O)c1cccc(C#N)c1)n(C)c(=O)c(=O)n2C -13.1%, Cc1ccc(=O)n(-c2ccccc2)c1 -11.4%, CCc1cccc(C)c1NC(=O)Cn1nnc(-c2nc(-c3ccccc3F)no2)c1N -21.5%, COc1ccc(CCNC(=O)c2ccc(Cn3c(=O)c4ccccc4n(Cc4cccc(F)c4)c3=O)cc2)cc1OC -8.33%, CCc1ccc(NC(=O)C2CCCN2S(=O)(=O)c2ccc3c(c2)CCCC(=O)N3)cc1 (configuration not stated) -13%, O=C1c2ccccc2CCc2ccccc21 -12.6%, CCC(CC)C(=O)Nc1cc(-c2ccccc2F)nn1-c1ccccc1 -2.66%, Cc1ccc(/C=C/c2onc(C)c2S(=O)(=O)N2CCC(C(=O)Nc3ccc(Br)c(C)c3)CC2)cc1 0.0684%, CNS(=O)(=O)c1cn(CC(=O)Nc2ccc(OC)cc2OC)cc1S(=O)(=O)NC -10.2%, Cc1ccc(S(=O)(=O)c2cn(CC(=O)Nc3cccc(C)c3)c3cc4c(cc3c2=O)OCO4)cc1 -0.722%, NS(=O)(=O)c1ccc(NC(=O)CSc2ccc3ccccc3n2)cc1 9.4%, Cc1ccc(CNS(=O)(=O)c2cc3c(cc2Cl)NC(=O)CO3)o1 -10%, CC1CCC(C(=O)NC(C(=O)OCC(=O)c2ccc(Br)cc2)C(C)C)CC1 (configuration not stated) -20.5%, CN(C(=O)c1ccc2c(Cl)c3c(nc2c1)CCC3)c1ccccc1F -12.2%, Cc1ccc(CNC(=O)c2nnc(Cc3ccc(Cl)cc3)o2)cc1 -3.45%, CCN(CC)C(=O)Cn1c(=O)n(-c2ccccc2)c(=O)c2c3c(sc21)CCC3 -2.3%, COc1ccccc1C(=O)Nc1ccc(C(=O)OCc2cc(=O)n3nc(C)sc3n2)cc1 6.82%, Cc1ccccc1/C=C(\C#N)c1nc(-c2ccc(Cl)cc2)cs1 -14.7%, Cc1csc2nc(-c3ccc(NS(=O)(=O)c4cc(F)ccc4F)cc3)cn12 -32%, COc1ccc2c(c1)Cc1sc(NC(=O)c3cccc(Br)c3)nc1-2 -7.39%, CC(=O)N1CCc2c(sc3c2c(=O)n(Cc2ccccc2)c(=O)n3Cc2cc(C)ccc2C)C1 -5.07%, CC1CN(C(=O)N2CCC(C(=O)NCCCc3ccccc3)CC2)c2ccccc2O1 (configuration not stated) -7.12%, Cc1c(Cl)cccc1Nc1nc2ccc(C(=O)c3ccccc3)cc2n2cnnc12 -13.3%, Cc1ccc(NC(=O)Cn2c(-c3cncs3)nc3ccccc32)c(Br)c1 -5.75%
